From patent publication US9789096B2, “Methods and compositions for selective and targeted cancer therapy” (Board of Regents of the University of Texas System, priority 2013, dated 2017)
“And” between values parts separate entries of the source, which are not always exact repeats. Identical values can stand only once.

Target: T1, p37 and p30 (SCD1) (Homo sapiens, UniProt O00767)
T1 sequence (O00767 1-359): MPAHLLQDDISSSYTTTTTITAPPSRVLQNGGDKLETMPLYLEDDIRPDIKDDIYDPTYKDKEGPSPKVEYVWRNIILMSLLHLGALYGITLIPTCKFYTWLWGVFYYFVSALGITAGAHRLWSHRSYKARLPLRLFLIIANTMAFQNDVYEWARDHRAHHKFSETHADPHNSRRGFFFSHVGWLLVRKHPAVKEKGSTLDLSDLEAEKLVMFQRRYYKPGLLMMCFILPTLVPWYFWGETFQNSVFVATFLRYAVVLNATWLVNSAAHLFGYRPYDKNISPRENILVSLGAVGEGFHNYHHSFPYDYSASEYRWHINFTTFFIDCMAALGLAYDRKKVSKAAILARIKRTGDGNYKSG
Test: Competition with SW208108 for covalent binding to p37 and p30 in H2122 cells
Conditions: band formed by SW208108 in the presence of a 10-fold excess of competitor

Compound: COc1ccccc1C(=O)c1ccc(C(=O)NC(=O)NCCc2ccc(O)cc2)cc1 [SW208580-1-A]
- Band Intensity Relative to DMSO: 108.7%

Compound: O=C(NCCc1ccc(O)cc1)NC(=O)c1ccc(Oc2ccccc2)cc1 [SW208523]
- Band Intensity Relative to DMSO: 2.1%

Compound: COc1ccc(CCNC(=O)NC(=O)c2ccc(C(O)c3ccccc3)cc2)cc1 (stereo not shown) [SW208460-1-A]
- Band Intensity Relative to DMSO: 15.1%

Compound: COc1ccc(C(=O)c2ccc(NC(=O)C(=O)NCCc3ccc(O)cc3)cc2)cc1 [SW208117-1-A]
- Band Intensity Relative to DMSO: 4.7%

Compound: COc1ccc(CCNC(=O)NC(=O)c2ccc(C(=O)NCc3ccccc3)cc2)cc1 [SW208412-1-A]
- Band Intensity Relative to DMSO: 51.2%

Compound: COc1ccc(CCNC(=O)NC(=O)c2ccc(Nc3ccccc3)cc2)cc1 [SW208561-1-A]
- Band Intensity Relative to DMSO: 13.8%

Compound: COc1ccc(CCNC(=O)NC(=O)c2ccc(C(=O)c3ccccc3)cc2)cc1 [SW208222-1-A]
- Band Intensity Relative to DMSO: 46.4%

Compound: COc1ccc(CCNC(=O)NC(=O)c2ccc(COc3ccccc3)cc2)cc1 [SW208458-1-A]
- Band Intensity Relative to DMSO: 8.8% and 10.6%

Compound: Cc1cccc(C(=O)c2ccc(C(=O)NC(=O)NCCc3ccc(O)cc3)cc2)c1 [SW208582-1-A]
- Band Intensity Relative to DMSO: 90.9%

Compound: COc1ccc(CCNC(=O)NC(=O)c2ccc(Cl)cc2)cc1 [SW208401-1-A]
- Band Intensity Relative to DMSO: 33.4%

Compound: O=C(NCCc1ccc(O)cc1)NC(=O)c1ccc(COc2ccccc2)cc1 [SW208522-1-A]
- Band Intensity Relative to DMSO: 1.1%

Compound: O=C(Nc1nc2ccccc2o1)c1ccc(C(=O)c2ccccc2)cc1 [SW208665-1]
- Band Intensity Relative to DMSO: 107.5%

Compound: O=C(NCCc1ccc(O)cc1)NC(=O)c1ccc(Nc2ccccc2)cc1 [SW208562-1-A]
- Band Intensity Relative to DMSO: 3.7%

Compound: O=C(Nc1nc2ccccc2[nH]1)c1ccc(C(=O)c2ccccc2)cc1 [SW208653-1]
- Band Intensity Relative to DMSO: 38.8%

Compound: COc1ccc(CCNC(=O)NC(=O)c2ccc(C(=O)c3ccc(OC)cc3)cc2)cc1 [SW208220-1-A]
- Band Intensity Relative to DMSO: 95.3%

Compound: COc1ccc(CCNC(=O)C(=O)Nc2ccc(C)cc2F)cc1 [SW206883-1-A]
- Band Intensity Relative to DMSO: 74.7%

Compound: COc1ccc(CCNC(=O)NC(=O)c2ccc(C(=O)N(C)C)cc2)cc1 [SW208455-1-A]
- Band Intensity Relative to DMSO: 103.8%

Compound: COc1ccc(CCNC(=O)NC(=O)c2ccc(Oc3ccccc3)cc2)cc1 [SW208456]
- Band Intensity Relative to DMSO: 10.5%

Compound: O=C(NCCc1ccc(O)cc1)NC(=O)c1ccc(C(=O)c2ccccc2)cc1 [SW208459-1-A]
- Band Intensity Relative to DMSO: 9.5% and 7.3%

Compound: O=C(Nc1nc2ccc(O)cc2s1)c1ccc(C(=O)c2ccccc2)cc1 [SW202864-1]
- Band Intensity Relative to DMSO: 46.5%

Compound: COc1ccc(CCNC(=O)C(=O)Nc2ccc(Cl)c(C#N)c2)cc1 [SW206959-1]
- Band Intensity Relative to DMSO: 22.4%

Compound: COc1ccc(CCNC(=O)NC(=O)c2ccc(-c3ccccc3)cc2)cc1 [SW208393-1-A]
- Band Intensity Relative to DMSO: 72.4%
